Laboratory results taken from patent US10087478B2, “Compositions comprising a polypeptide having cellulolytic enhancing activity and a nitrogen-containing compound and uses thereof” (priority 2010, dated 2018).
Where two headings read alike, the source gives them in different places.

Target: Thermoascus aurantiacus GH61A polypeptide (Thermoascus aurantiacus, UniProt G3XAP7, N13Y)
Type: biochemical
[1] = Example 6, 5 mM compound, GH61A 0.4 mg/g cellulose, FIG. 2 grey bars
[2] = Example 6, 5 mM compound, GH61A 0.4 mg/g cellulose, early and mid hydrolysis stages
[3] = pterin in DMSO, GH61A 2 mg per g cellulose, cellulose 29.5 mg per ml, 3 days
[4] = pterin in DMSO, GH61A 2 mg per g cellulose, cellulose 29.5 mg per ml, 7 days

For `CC(C)=NO` [acetone oxime], the “nitrogen-containing compound effect(+GH61)” value [1] was “very slightly impacted” and the GH61 effect [2] was “greater than 1”.

`Nc1ccccc1N` [1,2-benzenediamine] was tested, and the GH61 effect (5 mM 1,2-benzenediamine, GH61A 0.4 mg/g cellulose, day 1) was “greater than 1” and the “nitrogen-containing compound effect(+GH61)” value (5 mM compound, GH61A 0.4 mg/g cellulose, 1, 5 and 8 days (FIG. 1A)) was “less than 1”.

`O=C1NC(=O)C(=NO)C(=O)N1` [violuric acid] was tested, and the “nitrogen-containing compound effect(+GH61)” value [1] was “very slightly impacted” and the GH61 effect [2] was “greater than 1”.

In the case of `C[C@H](O)[C@H](O)[C@H]1CNc2nc(N)[nH]c(=O)c2N1.Cl.Cl` [(6R)-5,6,7,8-tetrahydrobiopterin dihydrochloride], the GH61 effect [3] was 1.03±0.0414, the “nitrogen-containing compound effect(+GH61)” value [3] was 0.917±0.0564 and the GH61 effect [4] was 1.07±0.0402. For the same molecule, the “nitrogen-containing compound effect(+GH61)” value [4] was 0.969±0.0189.

In the case of `CC1Nc2nc(N)[nH]c(=O)c2NC1C.Cl` (stereo not drawn) [6,7-dimethyl-5,6,7,8-tetrahydropterine hydrochloride], the GH61 effect [3] was 1.27±0.0160, the “nitrogen-containing compound effect(+GH61)” value [3] was 0.881±0.046 and the GH61 effect [4] was 1.15. For the same molecule, the “nitrogen-containing compound effect(+GH61)” value [4] was 0.785±0.0127.

`ON=Cc1ccccn1` [pyridine-2-aldoxime] was tested, and the “nitrogen-containing compound effect(+GH61)” value [1] was “slightly decreased” and the GH61 effect (Example 6, 5 mM compound, GH61A 0.4 mg/g cellulose, late hydrolysis (day 7)) was “greater than 1”.

`CC1(C)CCCC(C)(C)N1[O]` [TEMPO, 2,2,6,6-tetramethyl-1-piperidinyloxy] was tested, and the “nitrogen-containing compound effect(+GH61)” value [1] was “less than 1” and the GH61 effect (Example 6, 5 mM compound, GH61A 0.4 mg/g cellulose, increased as the hydrolysis progressed) was “greater than 1”.
